# Laboratory results: PMC4242493
# This is one part of the list. The list includes weakly bound sequences.
# Molecular target: MaxL homodimer (UniProt P61244)
# Test: universal protein-binding microarray (PBM)
# Details: PBS-based mixture, 10 nM His-tagged protein dimer, 2% milk, 200 ng/uL BSA, 50 ng/uL salmon testes DNA, 0.02% TX-100; detection with Alexa 488 anti-His …; high values mean tight binding; most listed sequences are background and not binding sites; double strand, one strand shown
# Chain of UniProt P61244 (P61244 whole entry): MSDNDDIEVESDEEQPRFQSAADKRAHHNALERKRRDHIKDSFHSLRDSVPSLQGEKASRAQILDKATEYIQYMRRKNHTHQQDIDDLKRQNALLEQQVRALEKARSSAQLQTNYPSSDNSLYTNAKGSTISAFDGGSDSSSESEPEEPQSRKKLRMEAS
row,Sequence,binding signal (normalized occupancy)
1,AGTTTAGC,0.0735
2,AGATGGCC,0.0781
3,ATTTTTCC,0.0726
4,GAGCTTGA,0.0669
5,CACTTTGA,0.0776
6,CCCGCCGG,0.0718
7,ATAACTAT,0.0809
8,TAAACTCA,0.0755
9,CCCTCCAA,0.075
10,AAGCTCCC,0.0683
11,CAACGCCA,0.078
12,ACACTCAA,0.0744
13,AGCGCTCA,0.0668
14,AAAGTACA,0.0761
15,CTCGAGTC,0.0755
16,ATGCAACA,0.0793
17,CCAATACC,0.078
18,ATGAATAA,0.0849
19,CTGATAGA,0.0736
20,ATTTGGAC,0.0778
21,AATGGGTC,0.077
22,GCACTGCA,0.0725
23,AAACACTA,0.0792
24,ATGCTTTC,0.0842
25,ACCTATAG,0.0762

row,Sequence,binding signal (normalized occupancy)
1,CCTCCCCA,0.0793
2,GTTCGGCA,0.0797
3,AAGCTCTA,0.0723
4,GCAAGTCA,0.0775
5,ACAGCTGA,0.0688
6,GAAAAGCA,0.0706
7,GAAGAGCC,0.0677
8,CGGTCCCC,0.0709
9,ACGTCAAG,0.0766
10,ATTAGGTA,0.0783
11,GCTTGTCA,0.0744
12,AGCTTTAC,0.0721
13,GCCACTAC,0.0738
14,TCAGCGAA,0.0689
15,ACATTCAC,0.0829
16,CAAATTCC,0.077
17,ACTCTAAG,0.0774
18,AACGGAAA,0.0704
19,CCGCAATA,0.0693
20,GTAGTTGA,0.0738
21,CAGCGGCC,0.0652
22,AGAGCGTG,0.0963
23,GCAGTAAC,0.0744
24,AGAGACAC,0.0742
25,ACTTCCGA,0.0725

row,Sequence,binding signal (normalized occupancy)
1,AATCACAA,0.0813
2,AAACATTG,0.0754
3,CCATTTCA,0.0736
4,CAAGGACC,0.0719
5,GTATGACA,0.0848
6,AATCTGAT,0.077
7,CGTTAGGA,0.076
8,ACTTTTCA,0.0767
9,ACGCACAT,0.0968
10,ATTAGGGG,0.0814
11,ATCAACGA,0.0713
12,ATTGAAAC,0.0762
13,AGATACCT,0.0734
14,ATGGGGTC,0.0935
15,CTTTACAA,0.0732
16,ACGCCCAA,0.073
17,CCGAGGGA,0.0724
18,GCCGGCTA,0.0655
19,CGCGAGAC,0.0744
20,GGGACTCA,0.0716
21,ATGGAGAA,0.0775
22,AGAAGTCG,0.0714
23,TCAGCTAA,0.0702
24,AAACTCTA,0.0728
25,GACCTTTA,0.075

row,Sequence,binding signal (normalized occupancy)
1,AAGAAACC,0.0743
2,ACACGGTC,0.0754
3,AGTATGTG,0.081
4,GCTGAGCC,0.0713
5,AGGCTCGG,0.0668
6,ATGCCTAC,0.0877
7,AAAGGCTT,0.0694
8,ATGAGTGC,0.0831
9,AATGTGCT,0.0916
10,ACTTGGGC,0.0727
11,AGTTCCAA,0.0691
12,AAGGCTTG,0.0703
13,CCGCCCAG,0.0767
14,CTACCGAA,0.0705
15,ATCCAAAC,0.0779
16,ATTTATCC,0.0788
17,CTCAGGAA,0.0716
18,CACAGTTC,0.0766
19,CCGTGCCA,0.0772
20,CAGATTAC,0.0759
21,ACGGAGAT,0.075
22,CTCTAACA,0.0777
23,GAGAGTGA,0.0766
24,AGAGAAGG,0.0701
25,ACTGTATG,0.0769

row,Sequence,binding signal (normalized occupancy)
1,GGAATTAA,0.0765
2,CAGGTAAC,0.0729
3,CGTTAGAA,0.0775
4,CATCTTAC,0.0803
5,TAAGCCTA,0.0687
6,ACGGGCTG,0.0708
7,GACGCGCA,0.0689
8,CCGCCTGA,0.0792
9,AGATGGAA,0.0827
10,ATATAATA,0.0802
11,CGCTGGGC,0.0691
12,ATCCGAAT,0.078
13,CCATTGAC,0.0772
14,AACAGGGC,0.0734
15,CAAAGTAC,0.0725
16,GCATCGAC,0.074
17,CTGTAGTC,0.073
18,CGCCCAAG,0.0681
19,CGATCCAA,0.0721
20,CGCCGGAG,0.0692
21,GACCAGAA,0.0778
22,GAGCCCCA,0.0691
23,CAATGAAC,0.0733
24,ATACATAC,0.0912
25,GCGAGTGA,0.0741

row,Sequence,binding signal (normalized occupancy)
1,AGCGACGG,0.0683
2,ACTCTACA,0.0806
3,ATCCTCAC,0.0798
4,ACTAACCA,0.075
5,CAAGCTCC,0.0732
6,TGCCCGCA,0.0797
7,ACATCTGA,0.0827
8,CTAACCAG,0.0756
9,CCTTCAGA,0.0732
10,CCCCAGAA,0.073
11,ATCGCTGC,0.0671
12,CCACAGCG,0.0735
13,GGACGCCA,0.0682
14,AGACAGCG,0.0705
15,AAGCTATC,0.0722
16,CCGAGAGA,0.0728
17,GCTCCGAA,0.0665
18,AATAGAAT,0.0817
19,CGCGTGCA,0.134
20,CGCGAGAG,0.0695
21,ACCCAACT,0.075
22,AATTGGCC,0.0709
23,AGATACCG,0.0745
24,CATCAGGC,0.0794
25,CGCTCTAC,0.0758

row,Sequence,binding signal (normalized occupancy)
1,CAGAAGGA,0.0718
2,AGCATTTC,0.0792
3,CATATCGG,0.0831
4,GAAAAATC,0.0723
5,ATAATGGA,0.0776
6,ATTTCAAG,0.0781
7,TATAGAGA,0.0759
8,CAGATGCG,0.078
9,GCCAGGGA,0.0703
10,CGGCAACA,0.073
11,GTTCAAAA,0.0725
12,ATAGTTTG,0.0788
13,AAGAATTG,0.0747
14,AACGCACG,0.091
15,AATTCTAT,0.0792
16,GACTACGC,0.0668
17,GCGCGTAC,0.0739
18,ACATGTGA,0.166
19,ATTATCTG,0.0764
20,AATTTTCT,0.0797
21,GTGTTGAA,0.0821
22,AACACTGA,0.0741
23,AGACTAAC,0.0681
24,CGACCTGA,0.0681
25,CTGCTATA,0.0783

row,Sequence,binding signal (normalized occupancy)
1,CGGTTAAG,0.074
2,CGACAACG,0.076
3,ACGTGGCA,0.106
4,GAGGTATA,0.0827
5,ACTTTCGG,0.074
6,GCGGCTAA,0.0707
7,AGCGCGCA,0.0759
8,AAGAGGAA,0.0726
9,TAAGGCGA,0.071
10,ACAGCAGG,0.0789
11,AGACCCTA,0.077
12,GCGCGTAA,0.0693
13,ACGCAATA,0.0791
14,ATCTGACC,0.077
15,CGTGGCGA,0.0802
16,AGTAAACG,0.0757
17,GAAAAACC,0.0722
18,AAGGCACA,0.0777
19,ACGATATC,0.0848
20,CAAGTCTA,0.0723
21,ACTCCTGA,0.0729
22,CCTCAAGC,0.0684
23,GGAAACCC,0.073
24,CGTGGAAG,0.0832
25,CGTCGATC,0.0811

row,Sequence,binding signal (normalized occupancy)
1,CGCACCCA,0.0884
2,GAAGTCGC,0.0706
3,AAGGACTT,0.0685
4,ATTCCTTA,0.0724
5,TGCGAAAA,0.0775
6,ACGACCGC,0.0723
7,ATAATAAT,0.0821
8,AAAGTGCC,0.0697
9,TAGTCCAA,0.0694
10,TACTCAGA,0.0681
11,CATCTGAA,0.0795
12,GGGCACAA,0.0742
13,GGTCGTCA,0.0812
14,AATGACGT,0.0758
15,AGGCGAGG,0.0752
16,CACCTACA,0.0819
17,ATAAAAAT,0.0776
18,ATTATCGA,0.0803
19,GACGACAC,0.0774
20,ATGGAACC,0.0764
21,ACGAGTGG,0.0794
22,ATTGACGG,0.0726
23,AATAATGG,0.0765
24,TCTGTCCA,0.0754
25,AAGCAAGT,0.0756

row,Sequence,binding signal (normalized occupancy)
1,CGCATTTA,0.0786
2,AACTCTCA,0.074
3,AGACGCCC,0.0726
4,AGGGCGAT,0.0749
5,GAGTACTC,0.0712
6,CGCAGAGA,0.0699
7,TACAGGAA,0.0731
8,ATAACAAT,0.0814
9,GTGCTGTA,0.0779
10,TAAACTTA,0.0771
11,GAAATGAC,0.0757
12,AGACACCA,0.0749
13,GTTTGCAA,0.0755
14,GATGCGTA,0.0807
15,CCCCACCA,0.0825
16,AAGTCAAA,0.0697
17,AGTAACCG,0.0699
18,GATCTGAA,0.0712
19,GGACGGTA,0.0722
20,GGTTAGAC,0.0736
21,TACTAAGA,0.0738
22,ACTCCAGA,0.0722
23,TCTCATAA,0.0868
24,ATTTCAGG,0.0722
25,TGCGCCCA,0.0758

row,Sequence,binding signal (normalized occupancy)
1,CTCAACAG,0.0686
2,CAGGAGCC,0.0659
3,GAGATCTC,0.0803
4,GCTCGATA,0.0734
5,CGCCAGCA,0.0729
6,GAGTTTAA,0.0756
7,TACCAGTA,0.0728
8,GAGGATGA,0.0805
9,ACGTGAGT,0.0893
10,CGATACAG,0.0757
11,TACGACTA,0.0729
12,AAACTCGG,0.0739
13,ATCGCGAA,0.0663
14,AGTGCCGA,0.0674
15,ACCCCGAC,0.0726
16,GAGCTGGA,0.0676
17,TGCTTAAA,0.0691
18,AATCTCGC,0.0755
19,AAAACCGT,0.0751
20,ATCTCTGA,0.0739
21,ATGTTTGC,0.0794
22,AGGATGAG,0.0759
23,CTGGACAG,0.0714
24,GATGCTAA,0.0749
25,TTATCAAA,0.0749

row,Sequence,binding signal (normalized occupancy)
1,AGATAAAG,0.0785
2,CAATCATG,0.0934
3,TAGCGCTA,0.0685
4,ACCCCGGA,0.0778
5,ATTGGTAC,0.0731
6,CGGATCCA,0.0788
7,GGCTCCGA,0.0697
8,AGCATTAC,0.0776
9,AACAGTCA,0.0748
10,CCTTGCCA,0.0742
11,ACTGGGCG,0.0763
12,GAGCCAAC,0.0754
13,ACCGTATA,0.0805
14,ATATGTTA,0.0924
15,TCCGCCCA,0.0771
16,GGTCCAAA,0.0751
17,ACTGTAGG,0.0763
18,CCACGTTC,0.0913
19,AGCTTCCC,0.0721
20,GCCGAGAA,0.0694
21,CCCAAGTA,0.0738
22,AGATGCAT,0.0784
23,ATGTAAGG,0.0888
24,GCACCTGC,0.0846
25,TACATAGA,0.0824

row,Sequence,binding signal (normalized occupancy)
1,CGTGCAAC,0.0887
2,CATGATGG,0.0946
3,TTAAGCAA,0.073
4,CGTGAACG,0.079
5,CTGAGGGC,0.0664
6,GTAAAGCA,0.0781
7,AATTTGCT,0.0701
8,GCCAGCAC,0.0723
9,CTTACATC,0.0759
10,AACTATGT,0.0762
11,GGCAGCCA,0.0739
12,GCACCGCA,0.0714
13,CTCCCAAA,0.0695
14,ACCCCTGG,0.0728
15,AACGGTAA,0.0772
16,ACTGGTAC,0.0756
17,CTTGAACA,0.0715
18,GGTCACAC,0.0831
19,CCTGGAGA,0.0689
20,TCATTACA,0.0825
21,CTAGCCGA,0.0669
22,ACTCGACC,0.0734
23,AGATCGGG,0.0711
24,TAGCTCCA,0.0712
25,ATGGTGAC,0.0841

row,Sequence,binding signal (normalized occupancy)
1,GAAGAGTA,0.0718
2,AAACCTTG,0.0721
3,CACGGGTA,0.0895
4,AGAGAAAA,0.0707
5,AGCTCACA,0.0815
6,ATGAGCAG,0.081
7,CGCAGTAC,0.0724
8,GCCGGGCC,0.064
9,CTCTAAAA,0.0687
10,TCGCTCCA,0.0738
11,CTACCGTC,0.0713
12,CAGAATGA,0.0757
13,CCCGCAGA,0.0735
14,GGGGAGTA,0.0803
15,CGGCGCTA,0.0673
16,GCGTAACC,0.0809
17,CCGACCGG,0.066
18,AAAGGTAA,0.0723
19,ACATTAGC,0.0803
